# Laboratory results from the supplement of paper PMC4604168 (melanoma cell lines).
# This is one part of the list. Single values are uncertain, as repeats are few or missing.
# Key:
# Experiment in all cases: cell count relative to DMSO control; melanoma cells; higher = more viable cells
# Conditions in all cases: library dose: low library concentration; 72 h
# WM115 = tested on: WM115
# WM1716 = tested on: WM1716
# WM1745 = tested on: WM1745
# WM3526 = tested on: WM3526
# WM3619 = tested on: WM3619
# WM451Lu = tested on: WM451Lu
# 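Further: cell number obtained by counting DAPI-stained nuclei in high-throughput microscope images with image analysis software, screen run in 1,536-well plates.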
Compound,cell count (WM115) [%],cell count (WM1716) [%],cell count (WM1745) [%],cell count (WM3526) [%],cell count (WM3619) [%],cell count (WM451Lu) [%]
"CS(=O)(=O)c1ccc(C(=O)Nc2ccc(Cl)c(-c3ccccn3)c2)c(Cl)c1 [vismodegib] + O=C(O)c1ccc(-c2c[nH]c3ncc(-c4ccccc4)cc23)cc1C1CCCC1 [GSK650394] (first compound 1 µM, partner dose 0.16 µM)",106,107,96.3,99,117,96.5
"CS(=O)(=O)c1ccc(C(=O)Nc2ccc(Cl)c(-c3ccccn3)c2)c(Cl)c1 [vismodegib] + Cc1cc([N+](=O)[O-])ccc1NS(=O)(=O)c1cc(Cl)ccc1Cl [FH535] (first compound 1 µM, partner dose 1 µM)",89.1,89.9,105,95.5,92.5,107
"CS(=O)(=O)c1ccc(C(=O)Nc2ccc(Cl)c(-c3ccccn3)c2)c(Cl)c1 [vismodegib] + COc1cc2c(Oc3ccc4[nH]c(C)cc4c3F)ncnc2cc1OCCCN1CCCC1 [cediranib] (first compound 1 µM, partner dose 0.4 µM)",100,101,93.6,95.8,117,106
"NC1(c2ccc(-c3nc4ccn5c(=O)[nH]nc5c4cc3-c3ccccc3)cc2)CCC1 + CNC(=O)c1cc(Oc2ccc(NC(=O)Nc3ccc(Cl)c(C(F)(F)F)c3)cc2)ccn1 [sorafenib] (first compound 0.4 µM, partner dose 0.4 µM)",71.8,88.3,84.9,69,80.2,141
"CN(c1ncccc1CNc1nc(Nc2ccc3c(c2)CC(=O)N3)ncc1C(F)(F)F)S(C)(=O)=O + CC(C)(C)c1cnc(CSc2cnc(NC(=O)C3CCNCC3)s2)o1 [SNS-032] (first compound 0.08 µM, partner dose 0.01 µM)",102,76.6,78.3,70.4,95.8,66
"C=C(c1ccc(C(=O)O)cc1)c1cc2c(cc1C)C(C)(C)CCC2(C)C [Bexarotene] + O=C(O)c1ccc(-c2c[nH]c3ncc(-c4ccccc4)cc23)cc1C1CCCC1 [GSK650394] (first compound 2 µM, partner dose 0.16 µM)",89.2,99.1,95.9,82,103,88.6
"C=C(c1ccc(C(=O)O)cc1)c1cc2c(cc1C)C(C)(C)CCC2(C)C [Bexarotene] + CN(NC(=O)CC(=O)NN(C)C(=S)c1ccccc1)C(=S)c1ccccc1 [STA4783] (first compound 2 µM, partner dose 0.006 µM)",86.3,58.9,29.9,82.5,20.1,93.9
"CS(=O)(=O)c1ccc(C(=O)Nc2ccc(Cl)c(-c3ccccn3)c2)c(Cl)c1 [vismodegib] + Nc1cccc2c1CN(C1CCC(=O)NC1=O)C2=O [lenalidomide] (first compound 1 µM, partner dose 1 µM)",112,102,91.8,97.7,103,102
"CN(c1ncccc1CNc1nc(Nc2ccc3c(c2)CC(=O)N3)ncc1C(F)(F)F)S(C)(=O)=O + Oc1cc(-c2nc(-c3ccccc3)[nH]c2-c2ccncc2)ccc1Cl [L779450] (first compound 0.08 µM, partner dose 0.2 µM)",62,94,70.1,79.9,77.5,57
"CCCS(=O)(=O)Nc1ccc(F)c(C(=O)c2c[nH]c3ncc(Cl)cc23)c1F + CC(C)(C)c1cnc(CSc2cnc(NC(=O)C3CCNCC3)s2)o1 [SNS-032] (first compound 0.08 µM, partner dose 0.01 µM)",84.8,97.7,72.9,71.2,101,107
"CN(c1ncccc1CNc1nc(Nc2ccc3c(c2)CC(=O)N3)ncc1C(F)(F)F)S(C)(=O)=O + O=C(O)[C@@H]1[O][Sb](=[O])([O][Sb]2(=[O])[O][C@H]([C@H](O)CO)[C@H](O)[C@H](C(=O)O)[O]2)[O][C@H]([C@H](O)CO)[C@@H]1O [stibogluconate] (first compound 0.08 µM, partner dose 2 µM)",82,98.5,82.2,96.4,111,89.6
"CCCS(=O)(=O)Nc1ccc(F)c(C(=O)c2c[nH]c3ncc(Cl)cc23)c1F + NC(=O)Nc1cc(-c2cccc(F)c2)sc1C(=O)N[C@H]1CCCNC1 [AZD7762] (first compound 0.08 µM, partner dose 0.02 µM)",99.9,101,112,58.8,97.9,99.7
"CCCS(=O)(=O)Nc1ccc(F)c(C(=O)c2c[nH]c3ncc(Cl)cc23)c1F + C=CCn1c(=O)c2cnc(Nc3ccc(N4CCN(C)CC4)cc3)nc2n1-c1cccc(C(C)(C)O)n1 [MK1775] (first compound 0.08 µM, partner dose 0.02 µM)",77.3,86.3,80.8,60,97.2,84.6
"C=C(c1ccc(C(=O)O)cc1)c1cc2c(cc1C)C(C)(C)CCC2(C)C [Bexarotene] + Cn1cc(/C=C2\C(=O)Nc3cccnc32)c2ccccc21 [GW441756] (first compound 2 µM, partner dose 0.4 µM)",102,83.8,103,82,101,104
"CCCS(=O)(=O)Nc1ccc(F)c(C(=O)c2c[nH]c3ncc(Cl)cc23)c1F + Cn1cncc1[C@@](N)(c1ccc(Cl)cc1)c1ccc2c(c1)c(-c1cccc(Cl)c1)cc(=O)n2C [tipifarnib] (first compound 0.08 µM, partner dose 0.01 µM)",87.7,81.6,88.1,67.2,104,74.5
"NC1(c2ccc(-c3nc4ccn5c(=O)[nH]nc5c4cc3-c3ccccc3)cc2)CCC1 + Oc1cc(-c2nc(-c3ccccc3)[nH]c2-c2ccncc2)ccc1Cl [L779450] (first compound 0.4 µM, partner dose 0.2 µM)",103,111,109,76.3,79.5,102
"CCCS(=O)(=O)Nc1ccc(F)c(C(=O)c2c[nH]c3ncc(Cl)cc23)c1F + Cc1ccc(NC(=O)c2cccc(N(C)C)c2)cc1NC(=O)c1ccc(O)cc1 [ZM336372] (first compound 0.08 µM, partner dose 2 µM)",95.6,107,90.2,70.1,89.7,103
"CS(=O)(=O)c1ccc(C(=O)Nc2ccc(Cl)c(-c3ccccn3)c2)c(Cl)c1 [vismodegib] + Nc1ncn([C@H]2C[C@H](O)[C@@H](CO)O2)c(=O)n1 [decitabine] (first compound 1 µM, partner dose 0.1 µM)",82.8,93.6,86.5,109,102,91.7
"C=C(c1ccc(C(=O)O)cc1)c1cc2c(cc1C)C(C)(C)CCC2(C)C [Bexarotene] + CCc1ccc(CCOc2ccc(CC3SC(=O)NC3=O)cc2)nc1 [pioglitazone] (first compound 2 µM, partner dose 2 µM)",104,79,100,83,116,90.8
"CS(=O)(=O)c1ccc(C(=O)Nc2ccc(Cl)c(-c3ccccn3)c2)c(Cl)c1 [vismodegib] + C[C@@H](Oc1cc(-c2cnn(C3CCNCC3)c2)cnc1N)c1c(Cl)ccc(F)c1Cl [Crizotinib] (first compound 1 µM, partner dose 0.2 µM)",106,104,107,111,103,91.6
"C=C(c1ccc(C(=O)O)cc1)c1cc2c(cc1C)C(C)(C)CCC2(C)C [Bexarotene] + N#Cc1c(O)c2c(-c3ccc(-c4ccccc4O)cc3)csc2[nH]c1=O [A769662] (first compound 2 µM, partner dose 2 µM)",109,81.7,96.3,82.6,92.2,90.2
"C=C(c1ccc(C(=O)O)cc1)c1cc2c(cc1C)C(C)(C)CCC2(C)C [Bexarotene] + C#Cc1cccc(Nc2ncnc3cc(OCCOC)c(OCCOC)cc23)c1 [erlotinib] (first compound 2 µM, partner dose 0.8 µM)",94.7,87.5,83.2,79.5,83.2,78.4
"NC1(c2ccc(-c3nc4ccn5c(=O)[nH]nc5c4cc3-c3ccccc3)cc2)CCC1 + C#Cc1cccc(Nc2ncnc3cc(OCCOC)c(OCCOC)cc23)c1 [erlotinib] (first compound 0.4 µM, partner dose 0.8 µM)",78.5,88.7,81.1,69,103,91.1
"C=C(c1ccc(C(=O)O)cc1)c1cc2c(cc1C)C(C)(C)CCC2(C)C [Bexarotene] + O=C1NC(=O)/C(=C/c2ccc(-c3ccc(F)cc3O)o2)S1 [AS252424] (first compound 2 µM, partner dose 1 µM)",99.7,65.4,92.5,94.2,91.1,72.5
"CS(=O)(=O)c1ccc(C(=O)Nc2ccc(Cl)c(-c3ccccn3)c2)c(Cl)c1 [vismodegib] + Cn1cc(/C=C2\C(=O)Nc3cccnc32)c2ccccc21 [GW441756] (first compound 1 µM, partner dose 0.4 µM)",105,107,122,109,109,115
"CN(c1ncccc1CNc1nc(Nc2ccc3c(c2)CC(=O)N3)ncc1C(F)(F)F)S(C)(=O)=O + Nc1nc(F)nc2c1ncn2[C@@H]1O[C@H](CO)[C@@H](O)[C@@H]1O [fludarabine] (first compound 0.08 µM, partner dose 0.2 µM)",67.1,86.6,83.2,27.6,98,44.7
